# This is one part of the list.
# Experiments:
# Assay in all cases: glycan array binding signal (z-score within array); higher = stronger binding
# Conditions in all cases: glycan notation: IUPAC condensed, linker removed
# GalNAc(b1-3)GalNAc = biological target: GalNAc(b1-3)GalNAc
# In short: (§1)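 The binding signal is a Z-score computed within each array and averaged over linkers. Arrays of the same protein sequence at different concentrations or buffers were also averaged together. Data originate from 3228 arrays in the Consortium for Functional Glycomics database, kept only where the protein sequence was available.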
# GalNAc(b1-4)GlcNAc = biological target: GalNAc(b1-4)GlcNAc
# In short: as §1
# Glc(a1-4)Glc = biological target: Glc(a1-4)Glc
# In short: as §1
# Glc(a1-6)Glc(a1-6)Glc = biological target: Glc(a1-6)Glc(a1-6)Glc
# In short: as §1
# Glc(b1-4)Glc = biological target: Glc(b1-4)Glc
# In short: as §1
# Glc(b1-6)Glc = biological target: Glc(b1-6)Glc
# In short: as §1
# GlcA(b1-3)Gal = biological target: GlcA(b1-3)Gal
# In short: as §1
# GlcA(b1-3)GlcNAc = biological target: GlcA(b1-3)GlcNAc
# In short: as §1
# GlcA(b1-6)Gal = biological target: GlcA(b1-6)Gal
# In short: as §1
# [1] = biological target: GlcNAc(a1-3)Gal(b1-4)GlcNAc
# In short: as §1
# [2] = biological target: GlcNAc(a1-6)Gal(b1-4)GlcNAc
# In short: as §1
# [3] = biological target: GlcNAc(b1-2)Gal(b1-3)GalNAc
# In short: as §1
# [4] = biological target: GlcNAc(b1-2)Man(a1-3)[GlcNAc(b1-2)Man(a1-6)]Man(b1-4)GlcNAc(b1-4)GlcNAc
# In short: as §1
# GlcNAc(b1-3)Gal = biological target: GlcNAc(b1-3)Gal
# In short: as §1
# [5] = biological target: GlcNAc(b1-3)Gal(b1-3)GalNAc
# In short: as §1
# GlcNAc(b1-3)Gal(b1-4)Glc = biological target: GlcNAc(b1-3)Gal(b1-4)Glc
# In short: as §1
# [6] = biological target: GlcNAc(b1-3)Gal(b1-4)GlcNAc
# In short: as §1
# [7] = biological target: GlcNAc(b1-3)Gal(b1-4)GlcNAc(b1-3)Gal(b1-4)GlcNAc
# In short: as §1
# GlcNAc(b1-3)GalNAc = biological target: GlcNAc(b1-3)GalNAc
# In short: as §1
# GlcNAc(b1-3)Man = biological target: GlcNAc(b1-3)Man
# In short: as §1
# [8] = biological target: GlcNAc(b1-3)[GlcNAc(b1-4)][GlcNAc(b1-6)]GlcNAc
# In short: as §1
# [9] = biological target: GlcNAc(b1-3)[GlcNAc(b1-6)]Gal(b1-4)GlcNAc
# In short: as §1
# [10] = biological target: GlcNAc(b1-3)[GlcNAc(b1-6)]GalNAc
# In short: as §1
# [11] = biological target: GlcNAc(b1-4)Gal(b1-4)GlcNAc
# In short: as §1
# GlcNAc(b1-4)GlcNAc = biological target: GlcNAc(b1-4)GlcNAc
# In short: as §1
# [12] = biological target: GlcNAc(b1-4)GlcNAc(b1-4)GlcNAc
# In short: as §1
# [13] = biological target: GlcNAc(b1-4)GlcNAc(b1-4)GlcNAc(b1-4)GlcNAc(b1-4)GlcNAc
# In short: as §1
# [14] = biological target: GlcNAc(b1-4)GlcNAc(b1-4)GlcNAc(b1-4)GlcNAc(b1-4)GlcNAc(b1-4)GlcNAc
# In short: as §1
# [15] = biological target: GlcNAc(b1-4)[GlcNAc(b1-6)]GalNAc
# In short: as §1
# [16] = biological target: GlcNAc(b1-6)Gal(b1-4)GlcNAc
# In short: as §1
# GlcNAc(b1-6)GalNAc = biological target: GlcNAc(b1-6)GalNAc
# In short: as §1
# GlcNAc3Prop(b1-4)GlcNAc = biological target: GlcNAc3Prop(b1-4)GlcNAc
# In short: as §1
# Kdn(a2-3)Gal(b1-3)GlcNAc = biological target: Kdn(a2-3)Gal(b1-3)GlcNAc
# In short: as §1
# Kdn(a2-3)Gal(b1-4)GlcNAc = biological target: Kdn(a2-3)Gal(b1-4)GlcNAc
# In short: as §1
# [17] = biological target: Man(a1-2)Man(a1-2)Man(a1-3)Man
# In short: as §1
# [18] = biological target: Man(a1-2)Man(a1-2)Man(a1-6)[Man(a1-3)]Man
# In short: as §1
# Man(a1-2)Man(a1-3)Man = biological target: Man(a1-2)Man(a1-3)Man
# In short: as §1
# [19] = biological target: Man(a1-2)Man(a1-3)[Man(a1-2)Man(a1-6)]Man
# In short: as §1
# [20] = biological target: Man(a1-2)Man(a1-3)[Man(a1-2)Man(a1-6)]Man(a1-6)[Man(a1-2)Man(a1-2)Man(a1-3)]Man
# In short: as §1
# [21] = biological target: Man(a1-2)Man(a1-3)[Man(a1-2)Man(a1-6)]Man(a1-6)[Man(a1-2)Man(a1-2)Man(a1-3)]Man(b1-4)GlcNAc(b1-4)GlcNAc
# In short: as §1
# [22] = biological target: Man(a1-2)Man(a1-3)[Man(a1-6)]Man(a1-6)[Man(a1-2)Man(a1-3)]Man(b1-4)GlcNAc(b1-4)GlcNAc
# In short: as §1
# [23] = biological target: Man(a1-2)Man(a1-6)[Man(a1-3)]Man(a1-6)[Man(a1-2)Man(a1-2)Man(a1-3)]Man
# In short: as §1
# [24] = biological target: Man(a1-2)Man(a1-6)[Man(a1-3)]Man(a1-6)[Man(a1-2)Man(a1-2)Man(a1-3)]Man(b1-4)GlcNAc(b1-4)GlcNAc
# In short: as §1
# Man(a1-3)[Man(a1-6)]Man = biological target: Man(a1-3)[Man(a1-6)]Man
# In short: as §1
# [25] = biological target: Man(a1-3)[Man(a1-6)]Man(a1-6)[Man(a1-2)Man(a1-3)]Man(b1-4)GlcNAc(b1-4)GlcNAc
# In short: as §1
# [26] = biological target: Man(a1-3)[Man(a1-6)]Man(a1-6)[Man(a1-3)]Man
# In short: as §1
# [27] = biological target: Man(a1-3)[Man(a1-6)]Man(a1-6)[Man(a1-3)]Man(b1-4)GlcNAc(b1-4)GlcNAc
# In short: as §1
# [28] = biological target: Man(a1-3)[Man(a1-6)]Man(b1-4)GlcNAc(b1-4)GlcNAc
# In short: as §1
# Man(a1-6)Man = biological target: Man(a1-6)Man
# In short: as §1
# Man(b1-4)GlcNAc = biological target: Man(b1-4)GlcNAc
# In short: as §1
# Neu5Ac(a2-3)Gal = biological target: Neu5Ac(a2-3)Gal
# In short: as §1
# [29] = biological target: Neu5Ac(a2-3)Gal(b1-3)GalNAc
# In short: as §1
# [30] = biological target: Neu5Ac(a2-3)Gal(b1-3)GalNAc(b1-3)Gal(a1-4)Gal(b1-4)Glc
# In short: as §1
# [31] = biological target: Neu5Ac(a2-3)Gal(b1-3)GalNAc(b1-3)Gal(b1-4)GlcNAc
# In short: as §1
# [32] = biological target: Neu5Ac(a2-3)Gal(b1-3)GalNAc(b1-4)[Neu5Ac(a2-3)]Gal(b1-4)Glc
# In short: as §1
# [33] = biological target: Neu5Ac(a2-3)Gal(b1-3)GalNAc6S
# In short: as §1
# [34] = biological target: Neu5Ac(a2-3)Gal(b1-3)GlcNAc
# In short: as §1
# [35] = biological target: Neu5Ac(a2-3)Gal(b1-3)GlcNAc(b1-3)Gal(b1-3)GlcNAc
# In short: as §1
# [36] = biological target: Neu5Ac(a2-3)Gal(b1-3)GlcNAc6S
# In short: as §1
binder,measurement,setting,value
"MCI4 (Toxoplasma gondii), Q9XZH7 (protein) MRASLPVHLVVCTQLSAVWFGVAKAHGGHRLEPHVPGFLQGFTDITPAGDDVSANVTSSEPAKLDLSCVHSDNKGSRAPTIGEPVPDVSLEQCAAQCKAVDGCTHFTYNDDSKMCHVKEGKPDLYDLTGGKTASRSCDRSCFEQHVSYEGAPDVMTAMVTSQSADCQAACAADPSCEIFTYNEHDQKCTFKGRGFSAFKERGVLGVTSGPKQFCDEGGKLTQEEMEDQISGCIQLSDVGSMTADLEEPMEADSVGACMERCRCDGRCTHFTFNDNTRMCYLKGDKMQLYSSPGDRTGPKSCDSSCFSNGVSYVDDPATDVETVFEISHPIYCQVICAANPLCTVFQWYASEAKCVVKRKGFYKHRKTGVTGVTVGPREFCDFGGSIRDREEADAVGSDDGLNAEATMANSPDFHDEVECVHTGNIGSKAQTIGEVKRASSLSECRARCQAEKECSHYTYNVKSGLCYPKRGKPQFYKYLGDMTGSRTCDTSCLRRGVDYSQGPEVGKPWYSTLPTDCQVACDAEDACLVFTWDSATSRCYLIGSGFSAHRRNDVDGVVSGPYTFCDNGENLQVLEAKDTE",glycan array binding signal (z-score),GalNAc(b1-3)GalNAc,-0.2
same,glycan array binding signal (z-score),GalNAc(b1-4)GlcNAc,-0.19
same,glycan array binding signal (z-score),Glc(a1-4)Glc,-0.2
same,glycan array binding signal (z-score),Glc(a1-6)Glc(a1-6)Glc,-0.212
same,glycan array binding signal (z-score),Glc(b1-4)Glc,-0.181
same,glycan array binding signal (z-score),Glc(b1-6)Glc,-0.199
same,glycan array binding signal (z-score),GlcA(b1-3)Gal,-0.219
same,glycan array binding signal (z-score),GlcA(b1-3)GlcNAc,-0.189
same,glycan array binding signal (z-score),GlcA(b1-6)Gal,-0.211
same,glycan array binding signal (z-score),[1],-0.123
same,glycan array binding signal (z-score),[2],-0.203
same,glycan array binding signal (z-score),[3],-0.219
same,glycan array binding signal (z-score),[4],-0.224
same,glycan array binding signal (z-score),GlcNAc(b1-3)Gal,-0.21
same,glycan array binding signal (z-score),[5],-0.019
same,glycan array binding signal (z-score),GlcNAc(b1-3)Gal(b1-4)Glc,-0.184
same,glycan array binding signal (z-score),[6],-0.196
same,glycan array binding signal (z-score),[7],-0.216
same,glycan array binding signal (z-score),GlcNAc(b1-3)GalNAc,-0.203
same,glycan array binding signal (z-score),GlcNAc(b1-3)Man,-0.207
same,glycan array binding signal (z-score),[8],-0.202
same,glycan array binding signal (z-score),[9],-0.185
same,glycan array binding signal (z-score),[10],-0.215
same,glycan array binding signal (z-score),[11],-0.228
same,glycan array binding signal (z-score),GlcNAc(b1-4)GlcNAc,-0.217
same,glycan array binding signal (z-score),[12],-0.184
same,glycan array binding signal (z-score),[13],-0.198
same,glycan array binding signal (z-score),[14],-0.215
same,glycan array binding signal (z-score),[15],-0.206
same,glycan array binding signal (z-score),[16],-0.196
same,glycan array binding signal (z-score),GlcNAc(b1-6)GalNAc,-0.145
same,glycan array binding signal (z-score),GlcNAc3Prop(b1-4)GlcNAc,-0.227
same,glycan array binding signal (z-score),Kdn(a2-3)Gal(b1-3)GlcNAc,-0.206
same,glycan array binding signal (z-score),Kdn(a2-3)Gal(b1-4)GlcNAc,-0.205
same,glycan array binding signal (z-score),[17],-0.218
same,glycan array binding signal (z-score),[18],-0.213
same,glycan array binding signal (z-score),Man(a1-2)Man(a1-3)Man,-0.186
same,glycan array binding signal (z-score),[19],-0.213
same,glycan array binding signal (z-score),[20],-0.202
same,glycan array binding signal (z-score),[21],-0.207
same,glycan array binding signal (z-score),[22],-0.222
same,glycan array binding signal (z-score),[23],-0.216
same,glycan array binding signal (z-score),[24],-0.208
same,glycan array binding signal (z-score),Man(a1-3)[Man(a1-6)]Man,-0.197
same,glycan array binding signal (z-score),[25],-0.213
same,glycan array binding signal (z-score),[26],-0.188
same,glycan array binding signal (z-score),[27],-0.209
same,glycan array binding signal (z-score),[28],-0.208
same,glycan array binding signal (z-score),Man(a1-6)Man,-0.218
same,glycan array binding signal (z-score),Man(b1-4)GlcNAc,-0.229
same,glycan array binding signal (z-score),Neu5Ac(a2-3)Gal,-0.221
same,glycan array binding signal (z-score),[29],-0.218
same,glycan array binding signal (z-score),[30],-0.213
same,glycan array binding signal (z-score),[31],-0.203
same,glycan array binding signal (z-score),[32],-0.216
same,glycan array binding signal (z-score),[33],-0.21
same,glycan array binding signal (z-score),[34],-0.209
same,glycan array binding signal (z-score),[35],-0.209
same,glycan array binding signal (z-score),[36],-0.221

# Source: the supplement of paper PMC8728848
